Assay results as given in the supplement of paper PMC11417369.
The other results are listed elsewhere or left out.

tested on: PfHDP1 homeodomain (GST-tagged); assay: gcPBM binding intensity (ln(normalized median fluorescence intensity)); higher = stronger DNA binding
Procedure, shortened: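 In this array assay, P. falciparum DNA-binding domains with a GST tag, expressed in E. coli, were applied for 1 h to primer-extended double-stranded 36-bp intergenic genomic probes and negative controls on an Agilent 4 × 180k array. Bound protein was visualised with Alexa488 anti-GST antibody at 488 nm. Binding intensity is the highest Masliner-normalised natural-log median intensity across replicate spots of either probe orientation.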

| Sequence | gcPBM binding intensity (ln) |
| --- | --- |
| GTAAAAATAAAAACTGGTACACAAGTTGTTATAAAA [XGTACX_site502] | 6.22 |
| AACATGCTCAACTTTTTTTTTTTTTTTTTTTTTTTT [CACACA_negctrl_site1617] | 9.03 |
| AATCTTAAAAATATATGTACTAAAAAAAAAAAAAAT [XGTACX_site6195] | 6.55 |
| ATATTTATTTATTTATGTACGCACACAGTTGATATT [XGTACX_site5808] | 7.04 |
| CACTATATAAGAACCTGTACTCAATTTTGCAATATA [XGTACX_site7238] | 8.53 |
| AAATTATATTCAAGTGCATGTAACTTATTATTATAT [TGCATGCA_site526] | 7.16 |
| TAATAATAAAAATAAACACACATATATATGTATATA [CACACA_site2853] | 6.4 |
| TATATTTTCCTGCAAACACACATATAAATGTGTAGA [CACACA_site533] | 6.77 |
| TTACGATTATACAAAAGTACATGTATTACACAATAT [XGTACX_site5138] | 6.63 |
| TATACCAGTTTTAAAAGTACTTGTGCATAAAAAATA [XGTACX_site4794] | 11 |
| AAACTTGTAAGAAACACACACACACCCATATATATA [CACACA_site797] | 7.18 |
| AAATTGGGGCTTGTTACACACTTAGTGGGAGTTCTA [CACACA_site4485] | 6.78 |
| ATGAATAAATTAAAAATGCACACTTTGATGGGTACA [CACACA_site2157] | 8.98 |
| TATATATATATATATACACACTATATAATTCAAACA [CACACA_site4712] | 9.38 |
| AAGTTACAAAATCAAAAGGAAAAAATATAAAATAAT [CACACA_negctrl_site561] | 6.29 |
| CAAGAAAATTGACACACACACATATTTATATTTATA [CACACA_site7766] | 6.59 |
| AACATATATATATATACATGCATATGAACAACGAAT [TGCATGCA_site93] | 7.2 |
| TGTATAAATATAATCACACATATATATATATATATA [CACACA_site4365] | 9.42 |
| TATAAAAATGTTTACACACACACATAAATATATTTT [CACACA_site2512] | 6.69 |

| Sequence | gcPBM binding intensity (ln) |
| --- | --- |
| TTTTTTTTTTTTCTGAGTACGAAAAATAGAGATAGA [XGTACX_site3825] | 6.45 |
| TATATTAAACCATGTAGTACCTTGAATAAATATTAT [XGTACX_site8254] | 6.41 |
| ATAAAAAGGAGACACACACACACACGCATATTTATA [CACACA_site6551] | 6.85 |
| TTTTTTTAATTAGTTTGTACATATTGTTATAATATA [XGTACX_site6294] | 6.67 |
| CATGTTATGATTCCATGTACTTATAGCATTAAAAAA [XGTACX_site8939] | 6.59 |
| AAAAAAAAATACATATGTACTTATGTATAATGTTGT [XGTACX_site8104] | 6.52 |
| ATTATACCACCCGATATACACACTTGTAGACATCTT [CACACA_site7944] | 6.79 |
| TTAATTACATGTAATTGTACTTAATTATAAGACATT [XGTACX_site464] | 6.28 |
| TATTACTTATAAATTACACACAAATGATTGAACATT [CACACA_site2259] | 6.42 |
| TATACCTTTTTATTCACACATATATGTCATATGTCA [CACACA_site5423] | 7.25 |
| TTAAAATAAAGAAAATGTACATAAATAAAAATAAAG [XGTACX_site2280] | 6.95 |
| TTTTACCTAAATATCACACATATTTAAATATATATA [CACACA_site5597] | 6.48 |
| ATCACATATATATATAATATATATATGTATATATTT [GTGCAC_negctrl_site249] | 6.41 |
| AAAAAAAATATATATGCACACACAAAAAAACAAATT [CACACA_site8349] | 9.18 |
| ATATATATATATATATGTACATATATTTTTATTTAT [XGTACX_site3508] | 9.2 |
| CAACTAATATTAAAACGTACATAAATATTTAACAGA [XGTACX_site625] | 6.59 |
| TTACCAAAAAAATGTAGTACAATATAATATTATTTA [XGTACX_site5750] | 7.36 |
| AATATATATATTTAAGTGCATAATATTGTAATATTA | 9.76 |
| ATATATTATGAAGACTGTACATTTACATGAAAAAAA [XGTACX_site7203] | 6.5 |

| Sequence | gcPBM binding intensity (ln) |
| --- | --- |
| CACCCCCACAGACACACACACACACCCATATATATA [CACACA_site364] | 7.09 |
| AAGATTCATTGGTTCTGTACAAAATAAACACTATAA [XGTACX_site834] | 6.68 |
| TTAATTGACATAAAAAGTACTCATATAGATATGCAC [XGTACX_site6391] | 6.73 |
| AAATGTTAATAAAGGTGTACACAAAATAAAAAAAAT [XGTACX_site463] | 7.71 |
| AAAAAGAACAGAAACACACAAATAAAATAAAATTGT [CACACA_site6921] | 6.41 |
| TAATTTTATTTTATATGTACGCAATACAAATATATA [XGTACX_site8461] | 6.13 |
| TTTATTTAAAAAGTTTGTACATATATATTATTTTGA [XGTACX_site6040] | 6.3 |
| CATATATAAATATATACACACATACATACATACATA [CACACA_site5988] | 6.62 |
| ATATTATAGTTATGAACATGCAAACATTACGAAATA [TGCATGCA_site54] | 6.77 |
| AATTTATTATTTTATTGTACGTATTTTTTTTTTTAT [XGTACX_site2298] | 6.37 |
| AAAAAATATTAGACTTATAAAGCATAAAGGATATTA [GTGCAC_negctrl_site588] | 6.27 |
| AAATGACATTTCAAAAGTACATATTTAATTAATTAA [XGTACX_site2919] | 6.16 |
| TTTATATATATAATATGTACACATAATAATAATACA [XGTACX_site4862] | 6.49 |
| ATATATAATTAATTTTGTACACATAAAAAAAAAAAT [XGTACX_site6647] | 6.6 |
| AGAGAGAAAGCTATAACATGCAACAATTTTTTGAAA [TGCATGCA_site514] | 6.48 |
| ATATCTTATAATACGGTGCACTTGACATGAACAACT [GTGCAC_site9987] | 10.3 |
| ATATTTGCATGTGGTAGTACATAACATTCTTTTACA [XGTACX_site8194] | 7.13 |
| CTTCAATTAAAATTCACACATATAAATTAAAATATT [CACACA_site6129] | 6.04 |
| ATAAAAAAGAAACAAACACACATACATACAAACAAA [CACACA_site4256] | 6.89 |
